The least precise scores are not listed. The source holds two more conditions with little spread; they are left out. In variant names, del marks residues removed and ins residues inserted between the two positions. For part of these data: The data file names ogerin without a concentration.

This passage reports cAMP reporter score and surface expression score results from the GPR68 mutational scans of Howard et al. (2025).

B1: GPR68, Q15743 (parent)
chain: MGNITADNSSMSCTIDHTIHQTLAPVVYVTVLVVGFPANCLSLYFGYLQIKARNELGVYLCNLTVADLFYICSLPFWLQYVLQHDNWSHGDLSCQVCGILLYENIYISVGFLCCISVDRYLAVAHPFRFHQFRTLKAAVGVSVVIWAKELLTSIYFLMHEEVIEDENQHRVCFEHYPIQAWQRAINYYRFLVGFLFPICLLLASYQGILRAVRRSHGTQKSRKDQIQRLVLSTVVIFLACFLPYHVLLLVRSVWEASCDFAKGVFNAYHFSLLLTSFNCVADPVLYCFVSETTHRDLARLRGACLAFLTCSRTGRAREAYPLGAPEASGKSGAQGEEPELLTKLHPAFQTPNSPGSGGFPTGRLA

Data set [1] covers variants of B1. In words: cAMP reporter score (Enrich2 score, wild type = 0); higher = more signal; HEK293T, FACS bins.
The variants in data set [2] derive from B1. In words: surface expression score (Enrich2 score, wild type = 0); higher = more signal; HEK293T, FACS bins.

As to G98A, the cAMP reporter score was -1.24 in data set [1] (pH 5.5); -1.11 in data set [1] (pH 6); -1.52 in data set [1] (pH 6, modulator: ogerin); -1.06 in data set [1] (pH 6.5, modulator: ogerin). Further, the surface expression score in data set [2] is -1.2.

For G98H, the cAMP reporter score in data set [1] (pH 5.5) was -1.7; in data set [1] (pH 6) it was -0.82; in data set [1] (pH 6, modulator: ogerin) it was -0.973; in data set [1] (pH 6.5, modulator: ogerin), -1.08. Moreover, the surface expression score in data set [2] is 0.845.

Turning to G98Y, the cAMP reporter score in data set [1] (pH 5.5) was -0.75; in data set [1] (pH 6) it was -0.731; in data set [1] (pH 6, modulator: ogerin), 0.011; in data set [1] (pH 6.5, modulator: ogerin), -1.04. Moreover, the surface expression score in data set [2] is 1.77.

Regarding G98K, the cAMP reporter score in data set [1] (pH 5.5) is -2.3; in data set [1] (pH 6), -0.685; in data set [1] (pH 6, modulator: ogerin), -1.42; in data set [1] (pH 6.5, modulator: ogerin) it was 0.138. For the same variant, the surface expression score in data set [2] is 2.12.

In the case of G98E, the cAMP reporter score in data set [1] (pH 5.5) is -2.37; in data set [1] (pH 6), -0.579; in data set [1] (pH 6, modulator: ogerin) it was -1.55; in data set [1] (pH 6.5, modulator: ogerin) it was -2.24. Further, in data set [2], the surface expression score amounted to 0.274.

G98P: the cAMP reporter score is -1.54 in data set [1] (pH 5.5); -0.859 in data set [1] (pH 6); -1.86 in data set [1] (pH 6, modulator: ogerin); -1.29 in data set [1] (pH 6.5, modulator: ogerin). The surface expression score in data set [2] is -0.664.

As for G98D, the cAMP reporter score in data set [1] (pH 5.5) was -1.28; in data set [1] (pH 6), -0.314; in data set [1] (pH 6, modulator: ogerin), -2.61; in data set [1] (pH 6.5, modulator: ogerin), -0.541. The surface expression score in data set [2] is 0.917.

For the variant G98N, the cAMP reporter score is -1.52 in data set [1] (pH 5.5); -0.088 in data set [1] (pH 6); -1.44 in data set [1] (pH 6, modulator: ogerin); -1.23 in data set [1] (pH 6.5, modulator: ogerin).

Regarding G98V, the cAMP reporter score is -0.811 in data set [1] (pH 5.5); -0.514 in data set [1] (pH 6); -0.537 in data set [1] (pH 6, modulator: ogerin); -0.535 in data set [1] (pH 6.5, modulator: ogerin). Besides, the surface expression score in data set [2] is 0.269.

Consider G98R, for which the cAMP reporter score in data set [1] (pH 5.5) was -1.15; in data set [1] (pH 6, modulator: ogerin), -0.885; in data set [1] (pH 6.5, modulator: ogerin) it was 0.444. Also, the surface expression score in data set [2] came out at 1.53.

In the case of G98T, the cAMP reporter score in data set [1] (pH 5.5) is -1.34; in data set [1] (pH 6) it was -1.43; in data set [1] (pH 6, modulator: ogerin), -1.48; in data set [1] (pH 6.5, modulator: ogerin), -1.12. The surface expression score in data set [2] is 0.897.

Turning to G98L, the cAMP reporter score in data set [1] (pH 5.5) was 0.098; in data set [1] (pH 6), -0.542; in data set [1] (pH 6.5, modulator: ogerin) it was -1.55. Further, in data set [2], the surface expression score was determined as 0.643.

For the variant G98I, the cAMP reporter score in data set [1] (pH 5.5) is -1.02; in data set [1] (pH 6), -0.737; in data set [1] (pH 6, modulator: ogerin) it was -2.29; in data set [1] (pH 6.5, modulator: ogerin) it was -1.61. Further, the surface expression score in data set [2] amounted to 0.413.

In the case of I99_L100insGSG, the cAMP reporter score was -1.08 in data set [1] (pH 5.5); -0.744 in data set [1] (pH 6); -1.05 in data set [1] (pH 6, modulator: ogerin). Moreover, in data set [2], the surface expression score was -3.62.

On to N104del, for which the cAMP reporter score was -0.418 in data set [1] (pH 5.5); -0.972 in data set [1] (pH 6); -0.121 in data set [1] (pH 6.5, modulator: ogerin). For the same variant, the surface expression score in data set [2] was -3.31.

Consider Y102_E103del, for which the cAMP reporter score in data set [1] (pH 5.5) was -1.21; in data set [1] (pH 6) it was -1.38; in data set [1] (pH 6, modulator: ogerin), -1.53; in data set [1] (pH 6.5, modulator: ogerin), -1.4. Also, the surface expression score in data set [2] was -2.03.

Take G98del: the cAMP reporter score in data set [1] (pH 5.5) is -1.22; in data set [1] (pH 6, modulator: ogerin), -0.715; in data set [1] (pH 6.5, modulator: ogerin), -0.625. In addition, the surface expression score in data set [2] was -1.46.

N104_Y106del: the cAMP reporter score in data set [1] (pH 5.5) is -1.86; in data set [1] (pH 6) it was -1.82; in data set [1] (pH 6, modulator: ogerin), -1.63; in data set [1] (pH 6.5, modulator: ogerin), -0.936. In addition, in data set [2], the surface expression score was -1.96.

As for S93_C94insG, the cAMP reporter score is -0.404 in data set [1] (pH 5.5); -0.634 in data set [1] (pH 6); -1.3 in data set [1] (pH 6.5, modulator: ogerin). The surface expression score in data set [2] was -3.35.

For N104M, the cAMP reporter score in data set [1] (pH 5.5) is -1.19; in data set [1] (pH 6.5, modulator: ogerin) it was -2.5.

For N104P, the cAMP reporter score is -0.551 in data set [1] (pH 5.5) and -1.29 in data set [1] (pH 6.5, modulator: ogerin).

On to N104A, for which the cAMP reporter score in data set [1] (pH 5.5) was -1.6; in data set [1] (pH 6), -1.15; in data set [1] (pH 6, modulator: ogerin), -1.42; in data set [1] (pH 6.5, modulator: ogerin), -1.49. Besides, the surface expression score in data set [2] was -1.87.

Consider N104H, for which the cAMP reporter score is 0.192 in data set [1] (pH 5.5); 1.34 in data set [1] (pH 6); -0.082 in data set [1] (pH 6.5, modulator: ogerin). Moreover, the surface expression score in data set [2] turned out to be 2.18.

Regarding N104Y, the cAMP reporter score was -0.696 in data set [1] (pH 5.5); 0.341 in data set [1] (pH 6); -0.775 in data set [1] (pH 6, modulator: ogerin); -0.512 in data set [1] (pH 6.5, modulator: ogerin). For the same variant, the surface expression score in data set [2] is -0.684.

With N104K, the cAMP reporter score was -1.06 in data set [1] (pH 5.5); -1.27 in data set [1] (pH 6); -1.59 in data set [1] (pH 6, modulator: ogerin); -0.491 in data set [1] (pH 6.5, modulator: ogerin). The surface expression score in data set [2] is 2.3.

For the variant N104G, the cAMP reporter score in data set [1] (pH 5.5) was -0.485.

As to N104L, the cAMP reporter score in data set [1] (pH 5.5) is -0.821; in data set [1] (pH 6, modulator: ogerin), -0.095. For the same variant, in data set [2], the surface expression score was -3.34.

Consider N104E, for which the cAMP reporter score in data set [1] (pH 5.5) amounted to 0.646; in data set [1] (pH 6), 5.14; in data set [1] (pH 6, modulator: ogerin) it was 0.735; in data set [1] (pH 6.5, modulator: ogerin), 2.17. The surface expression score in data set [2] was -1.33.

For N104Q, the cAMP reporter score in data set [1] (pH 5.5) was -0.333; in data set [1] (pH 6), -0.223; in data set [1] (pH 6, modulator: ogerin), -0.916; in data set [1] (pH 6.5, modulator: ogerin), -0.823. Also, the surface expression score in data set [2] was -0.032.

For the variant N104V, the cAMP reporter score in data set [1] (pH 5.5) is 1.32; in data set [1] (pH 6, modulator: ogerin), 1.98; in data set [1] (pH 6.5, modulator: ogerin), 3.39.

On to N104D, for which the cAMP reporter score in data set [1] (pH 5.5) was -0.355; in data set [1] (pH 6), 0.23; in data set [1] (pH 6, modulator: ogerin), -0.236; in data set [1] (pH 6.5, modulator: ogerin) it was -0.611. Moreover, the surface expression score in data set [2] was -0.745.

In the case of N104I, the cAMP reporter score in data set [1] (pH 5.5) is -1.46; in data set [1] (pH 6.5, modulator: ogerin) it was -0.661. The surface expression score in data set [2] is -2.52.

For N104C, the cAMP reporter score in data set [1] (pH 5.5) was -0.37. Moreover, in data set [2], the surface expression score is -0.409.

Regarding L101I, the cAMP reporter score in data set [1] (pH 5.5) was -0.568; in data set [1] (pH 6.5, modulator: ogerin) it was 0.3. For the same variant, the surface expression score in data set [2] is -0.422.

For L101M, the cAMP reporter score in data set [1] (pH 5.5) was 1.6. In addition, the surface expression score in data set [2] was determined as 1.96.

For L101F, the cAMP reporter score in data set [1] (pH 5.5) is -0.132; in data set [1] (pH 6, modulator: ogerin), -1.49; in data set [1] (pH 6.5, modulator: ogerin) it was -1.07. The surface expression score in data set [2] is -0.916.
